Reference: patent US7176277 (BURNHAM INSTITUTE, dated 2007)

Key:
Bcl-2 = target: T1, Bcl-2 (UniProt P10415); experiment: GST pull-down, SDS-PAGE autoradiography
T1 construct: The residue numbers used for the mutants (Tyr108, Leu137, Gly145, Arg146, TM 205-239) fit human Bcl-2 alpha; also called full-length Bcl-2; ^35S-labeled Bcl-2

TR3 = target: T2, TR3 (human, UniProt P22736); experiment: GST pull-down, SDS-PAGE autoradiography
T2 construct: Full-length TR3, either endogenous in human cell lines (LNCaP, H460) or synthesized in vitro and ^35S-labeled; also called orphan receptor TR3; nur77

Chain of TR3 (P22736 whole entry): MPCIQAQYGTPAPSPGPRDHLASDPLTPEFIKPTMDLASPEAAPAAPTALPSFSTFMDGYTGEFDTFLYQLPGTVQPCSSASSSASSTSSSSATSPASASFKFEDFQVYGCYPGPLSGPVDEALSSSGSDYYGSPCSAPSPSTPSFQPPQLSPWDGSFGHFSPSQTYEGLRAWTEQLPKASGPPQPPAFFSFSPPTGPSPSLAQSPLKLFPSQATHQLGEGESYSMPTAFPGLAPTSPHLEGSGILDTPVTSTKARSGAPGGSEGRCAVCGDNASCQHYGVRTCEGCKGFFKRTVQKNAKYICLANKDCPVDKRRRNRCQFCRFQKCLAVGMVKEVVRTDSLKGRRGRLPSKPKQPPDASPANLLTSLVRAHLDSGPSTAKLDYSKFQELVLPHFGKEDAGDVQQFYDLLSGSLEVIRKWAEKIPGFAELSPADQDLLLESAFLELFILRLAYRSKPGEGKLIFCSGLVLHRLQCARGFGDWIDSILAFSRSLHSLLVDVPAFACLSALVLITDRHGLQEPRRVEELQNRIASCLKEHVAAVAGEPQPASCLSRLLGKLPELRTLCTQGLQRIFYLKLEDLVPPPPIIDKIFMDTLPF
Chain of Bcl-2 (P10415 whole entry): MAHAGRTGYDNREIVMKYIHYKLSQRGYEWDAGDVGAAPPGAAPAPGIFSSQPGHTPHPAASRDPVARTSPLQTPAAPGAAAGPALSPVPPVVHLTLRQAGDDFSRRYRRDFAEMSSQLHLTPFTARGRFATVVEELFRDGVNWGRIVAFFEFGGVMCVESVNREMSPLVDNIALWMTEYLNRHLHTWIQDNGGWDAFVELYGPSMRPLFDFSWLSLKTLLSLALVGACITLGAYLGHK

binding result (Bcl-2): no binding
binding result (TR3): no binding
B1: GST (other)
chain: not shown
notes: Control protein in the GST pull-down
